# Reference: the supplement of paper PMC3334620
# The full ranking holds about 33,000 sequences; the median of “E-score (-0.5 to 0.5)” is about -0.056, and the highest 2% start at about 0.38. Some of the results follow.
# Target: Stb4 (UniProt P50104)
# Experiment: PBM E-score (8-mer binding enrichment) (E-score (-0.5 to 0.5)); higher = stronger / more preferred TF binding; most listed sequences are background and not binding sites
# Conditions: protein concentration: 200 nM; construct: GST-DNA-binding domain
# Summary of the method: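 Bound GST-tagged yeast transcription factors, applied at about 100-200 nM to double-stranded universal all-10-mer Agilent arrays, were detected with fluorescent anti-GST. Scans were normalised with masliner. A modified Wilcoxon-Mann-Whitney statistic, the E-score, was assigned to each ungapped eight-base word pooled with its reverse complement by the Universal PBM Analysis Suite.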
row,Sequence,PBM E-score
1,AGGCCAAC,0.0393
2,GTTGTTTA,-0.176
3,CTGAATGA,-0.0923
4,AAAGCCGT,0.132
5,GCACGGGC,0.0264
6,ATCTTTTA,-0.123
7,ACGGTCGA,-0.00879
8,CGCATGCG,-0.0121
9,AACCGTTG,-0.245
10,CGTGGACA,-0.063
11,ACAGGGCC,0.0444
12,CTACAGCC,-0.0644
13,CTAGGAAC,-0.00703
14,AAAACTGC,-0.147
15,AACGTAAA,-0.0553
16,ATAGGTCC,0.00769
17,ATGATGTG,-0.0463
18,AGATTTTC,-0.0721
19,CGTCAGAC,0.0382
20,CACGGCAG,0.137
21,AACGGCGC,-0.114
22,GTCTTTTA,-0.112
23,CGTCCGAA,0.336
24,ACGCGTCT,-0.252
25,GACGTCAA,-0.249

row,Sequence,PBM E-score
1,AACCCTAA,0.0317
2,AGCCCCTG,-0.257
3,ATAGAAGG,-0.156
4,GCAAGTGC,-0.253
5,CTGCGCTC,-0.211
6,AGTGCCCG,0.0974
7,CGACGCAG,-0.0523
8,TCCCGTAA,0.148
9,AACTGCAC,-0.0632
10,AACAGCTG,-0.172
11,GCTGAAGA,-0.16
12,AGAGAAAG,-0.277
13,CAGCTACC,0.0203
14,ATTGCTCA,-0.00681
15,CAATCCGG,0.244
16,AGATTGTG,-0.134
17,ATTTGCTC,-0.0327
18,TCTCGACA,-0.142
19,CACCTAAC,0.114
20,CTGGTTTA,-0.149
21,GCTTTCGA,-0.171
22,AGTACACA,0.0187
23,CCACTTCG,0.188
24,CAACTGTA,-0.0781
25,ATGTCAGG,-0.0873

row,Sequence,PBM E-score
1,CCCGAGGA,0.388
2,ATTGTTTC,0.168
3,GCTCCCAC,-0.0956
4,AGCTGCCA,-0.13
5,CAAACTAC,-0.279
6,CGTTCCGC,0.412
7,CCAGATCG,0.0771
8,CCCACTTA,-0.205
9,CGCAACAG,-0.121
10,ATTTTCAA,0.133
11,ACATAGAA,-0.0215
12,CAGCGGAC,-0.0345
13,AAGACAAA,-0.252
14,CACTAAAG,-0.177
15,CTTTGATC,0.0214
16,TAAAGGTA,-0.0791
17,ATACCTCA,-0.174
18,ATTACAAC,-0.0654
19,CTGGATTC,-0.0742
20,CAGCCCTG,-0.25
21,ACTTCCTC,-0.0216
22,CGCTTGAA,0.0222
23,CAATCCCA,-0.0535
24,ATACATGG,-0.159
25,ATTAATGA,0.125

row,Sequence,PBM E-score
1,ACGTGAGG,0.0587
2,ATCAGAGG,-0.212
3,AAACAATC,-0.0819
4,AAGTCGGC,0.22
5,AATTTACG,0.136
6,ACCAGTCG,0.214
7,ATCGTGTC,0.113
8,CAGAGAAA,-0.173
9,AGGCGAAT,-0.189
10,GGTACGAA,-0.0112
11,GCTCACAC,-0.133
12,ATGCTGGG,-0.021
13,GAGATGCA,-0.126
14,CTTTGATA,-0.072
15,AGGAGGAG,-0.176
16,CGGTGTTC,0.121
17,AAAGCCCC,-0.0774
18,CAAAAGAA,-0.176
19,CTCTGTGC,-0.0218
20,CCATGCTC,-0.148
21,CTTGTCTC,0.0628
22,CAAGATTA,-0.0362
23,CAAAGCAG,-0.142
24,AGGGGCGC,-0.0191
25,AAACTTTC,0.0709

row,Sequence,PBM E-score
1,AAGGAGCC,0.0359
2,ACAGGCGT,-0.255
3,ACTTATAT,0.127
4,ATCTTTAA,0.0682
5,AGGGTCGG,0.314
6,CGGGTATA,0.418
7,AGAGCACT,0.00445
8,CCCTTGCG,-0.289
9,TATACCCA,0.0355
10,ATGCGTAA,-0.169
11,CGCAAGTC,-0.0818
12,AGTGTATC,-0.0707
13,AGTCCCCG,0.183
14,AATTGATC,-0.0375
15,AGTGAGAT,-0.104
16,CATAAGGG,0.0843
17,CCGCTGGC,-0.24
18,GAAACACC,0.0674
19,AGCCTATA,-0.222
20,GCCCACTA,-0.103
21,CACTGTCC,-0.0706
22,GTACTTTA,-0.112
23,CCCAGCCG,0.172
24,AACTGATA,-0.108
25,CTGCAACC,-0.186

row,Sequence,PBM E-score
1,CTCTCCGC,0.0798
2,CATTTGAA,0.0134
3,CGTGCTGC,-0.0945
4,GTTAGTTA,0.1
5,AATAGATG,-0.00998
6,GCCGAGCC,0.463
7,ACACTCGA,-0.24
8,AGAGGCGG,0.178
9,ATGACCGA,0.165
10,CTACCCGA,0.464
11,AAAAGTTC,0.0147
12,GGTACCAA,0.148
13,ATTTTCTA,0.0386
14,AAACTCTG,-0.154
15,CGGGCACC,0.247
16,GGACCTTA,0.0863
17,CGTACTAG,-0.196
18,CCCTAGGC,-0.0789
19,TAGTGAAA,-0.178
20,GGGACTAA,0.0567
21,AAAGGTGC,-0.0349
22,AGCTGCTC,-0.195
23,CAGCTTAC,-0.0162
24,AAGTCCAA,0.0221
25,ATCGTACC,0.0152

row,Sequence,PBM E-score
1,GGTAGGCA,-0.0581
2,AATTTCCA,-0.00015
3,CACGCAAA,-0.175
4,AGGTAGAA,-0.167
5,AAAAGGGC,-0.141
6,CGAGTTGA,0.133
7,GCACGGAA,0.327
8,GCGCATCA,-0.151
9,GGACCAGA,-0.17
10,TAAGACCA,-0.237
11,CTCCACCA,-0.15
12,GGTCTAAA,-0.0767
13,ACATACGG,0.0543
14,ACTTTCTA,-0.0964
15,GAAACAAC,0.153
16,CGAGCTGC,0.232
17,AAGCGACC,0.0468
18,TACAGGGA,-0.0915
19,CGTCGGAC,0.269
20,GGGGGCTA,-0.19
21,AGAACTGG,0.0328
22,AACGACCA,-0.223
